Out of some 340,000 compounds screened, about 12,000 (3.5%) were called active. Inconclusive means that the source gave no clear call. Such entries were picked first, then a sample of the others. Calls follow the shape of the dose curve; as a rule, active = well fitted inhibition curve with a large enough effect; inconclusive = small, poorly fitted or top-dose-only effect, or another doubt; inactive = no such curve, though single readings can be large or run the other way. No potency is given beside an inconclusive call; the fits are too rough.
assay: qHTS Assay for Inhibitors of Hepatitis C Virus (HCV); conditions: Huh7.5.1 HCVcc-Cre (HCVcc is cell-culture hepatitis C virus) infection, luciferase reporter, 44 h; activity change, negative = inhibition: at 41.8 µM (top of the series) unless noted
Outline: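 Reporter virus HCVcc-Cre (~0.5 moi) infects cells exposed to compound; seeding density 1,000 cells/well with 4 h settling beforehand. Luminescence, 15 sec read, taken 44 h post-infection following a 15 min RT substrate incubation.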
% is scaled to controls: 0 for no effect and ±100 for the full control effect; potency is read from the fitted curve at half-maximal effect; tags tell the direction and shape of the fitted curve.

Row | SMILES | Potency | activity change, negative = inhibition
1 | Nc1nc(Br)c2c(F)cccc2c1-c1ccc(Cl)cc1 | inconclusive [inhibitor, single point] | 
2 | Cc1ccc(OCC(=O)O/N=C(\N)Cc2cccs2)cc1C | inconclusive [inhibitor, single point] | 
3 | N#Cc1cc2c(nc1SCC(=O)Nc1sc3c(c1C#N)CCC3)CCC2 |  | inactive: 0.724%
4 | CCN(CC)CCCNC(=O)CSc1nc(C)cc(C)n1 |  | inactive: 6.88%
5 | COc1cccc(-c2ccc3c(N)c(C(=O)NC4CC4)sc3n2)c1 |  | inactive: -25.9%
6 | CCCCNS(=O)(=O)c1ccc(OCC(=O)N2CCN(Cc3ccc4c(c3)OCO4)CC2)cc1 | active: 3.16 µM | 
7 | Cc1nc2c3ccccc3nc(NNC(=O)CCC(=O)NCCN3CCN(c4ccccc4)CC3)n2n1 |  | inactive: 1.24%
8 | O/N=C/c1cc(Br)ccc1OCc1cccc(F)c1 | inconclusive [inhibitor, single point] | 
9 | Cc1ccc(NS(=O)(=O)c2ccc3[nH]c(=O)oc3c2)c(C)c1 |  | inactive: 21.1%
10 | COC(=O)Nc1sc2nc(C)cc(C)c2c1-n1cccc1 | inconclusive [inhibitor, single point] | 
11 | CCOc1ccc(Cl)cc1S(=O)(=O)N1CCN(c2ccc(F)cc2)CC1 |  | inactive: 0.906%
12 | Cc1cccc(NS(=O)(=O)c2ccc(C)c(C(=O)NCc3cccnc3)c2)c1 |  | inactive: 2.68%
13 | COCCNC(=O)NC(=O)COC(=O)c1cc([N+](=O)[O-])ccc1Sc1nc(C)cs1 |  | inactive: 1.01%
14 | O=C(NN1CCOCC1)c1cc(-c2ccc(Br)s2)nc2ccccc12 | inconclusive [inhibitor, single point] | 
15 | Cc1cccc(OCCCCc2c(C)n[nH]c2C)c1 | inconclusive [inhibitor, single point] | 
16 | CCOc1ccc(NCc2nc3ccccc3n2CCOc2ccccc2)cc1 | inconclusive [inhibitor, single point] | 
17 | Cc1nn(CC(=O)Nc2ccccc2C(F)(F)F)c(=O)c2cccn12 |  | inactive: 3.65%
18 | O=C1OCC2=C1C(c1ccc(Cl)cc1)c1cc3c(cc1O2)OCO3 (centres undefined) | inconclusive [inhibitor, single point] | 
19 | Cc1ccc(OCc2cc(C(=O)NCC3COCCO3)no2)cc1C (centres undefined) |  | inactive: 14.6%
20 | N#CC(C#N)=C(N)/C(C#N)=C/c1cc(O)c(O)c(O)c1 |  | inactive: -1.24%
21 | C#CC(=O)N(c1cccc(OC)c1)C(C(=O)NC1CCCC1)c1cccs1 (centres undefined) | active: 0.562 µM | 
22 | Cc1ccc(N2C(=O)CSC2c2ccc3c(c2)OCO3)cc1 (centres undefined) | inconclusive [inhibitor, partial curve] | 
23 | Cc1ccc(-c2nc3cnccn3c2Nc2c(C)cccc2C)o1 | inconclusive [inhibitor, single point] | 
24 | CCCCCC(=O)N1CCCC(c2nc(-c3ccc(OC)cc3)no2)C1 (centres undefined) | inconclusive [inhibitor, single point] | 
25 | CCOP(=O)(OCC)c1cccc(OP(=O)(c2cccc([N+](=O)[O-])c2)c2cccc([N+](=O)[O-])c2)c1 |  | inactive: 17.7%

Row | SMILES | Potency | activity change, negative = inhibition
26 | CC(=O)c1cccc(Nc2nc(-c3sc(C)nc3C)cs2)c1 | active: 8.91 µM | 
27 | CCOc1ccc(C(=O)Nc2cccc(-c3ccc(N4CCOCC4)nn3)c2)cc1OCC | inconclusive [inhibitor, full curve] | 
28 | Cn1nc(N)c2c(-c3ccccc3)c(C#N)c(N)nc21 | inconclusive [inhibitor, partial curve, poor fit] | 
29 | CC(C)c1ccc(N=C(N)N=C(N)N)cc1 | inconclusive [inhibitor, single point] | 
30 | COc1ccccc1Oc1ccc(N/C=C/C(=O)c2ccc(C)o2)cc1 | active: 22.4 µM | 
31 | CCOc1ccc(N(CC(=O)NCCSCc2ccco2)S(=O)(=O)c2ccc(F)cc2)cc1 |  | inactive: 24.6%
32 | CCn1c2ccccc2c2cc(NC(=O)N3CCOCC3)ccc21 | inconclusive [inhibitor, single point] | 
33 | O=C(O)/C(=C\c1ccc(C(F)(F)F)cc1)c1ccc(S(=O)(=O)N2CCCC2)s1 |  | inactive: 6.75%
34 | O=[N+]([O-])c1cccc(NP(=O)(Oc2ccccc2)Oc2ccccc2)c1 | inconclusive [inhibitor, single point] | 
35 | CCCN1CCN(c2ncnc3c2nnn3Cc2ccccc2)CC1 | inconclusive [inhibitor, partial curve] | 
36 | CC(C)C(c1nnnn1Cc1ccco1)N1CCN(c2nc3ccccc3s2)CC1 (centres undefined) | inconclusive [inhibitor, single point] | 
37 | CCC(Cc1ccccc1)NC(=O)CCc1ccccc1 (centres undefined) |  | inactive: 11%
38 | COC(=O)C1=C(C)N(c2ccc(C(=O)OC)cc2)C(=O)C1 | inconclusive [inhibitor, single point] | 
39 | Cc1ccc2cc(C#N)c(NCCNC(=S)NCCCN3CCOCC3)nc2c1 | inconclusive [inhibitor, partial curve] | 
40 | CC1CC(C)CN(C(=O)Cc2c(C(=O)O)[nH]c3ccc(Cl)cc23)C1 (centres undefined) | inconclusive [inhibitor, single point] | 
41 | COc1cc2c(cc1OC)C(C)N(S(=O)(=O)c1ccc(Cl)nc1)CC2 (centres undefined) |  | inactive: -1.15%
42 | COc1cccc(C(=O)N2CCN(C3CCC(c4ccccc4)CC3)CC2)c1OC (centres undefined) | inconclusive [inhibitor, single point] | 
43 | COC(=O)c1ccc(CNC(=O)C2CCC(=O)N(CCc3ccccc3)C2)cc1 (centres undefined) |  | inactive: 0.342%
44 | CC(OC(=O)c1ccc(F)cc1)C(=O)Nc1nc(-c2cccc([N+](=O)[O-])c2)cs1 (centres undefined) | inconclusive [inhibitor, single point] | 
45 | CCOC(=O)C1Nc2ccccc2C2c3ccccc3CC12 (centres undefined) | inconclusive [inhibitor, single point] | 
46 | COc1ccc(CCC(=O)Nc2ccc(S(=O)(=O)N3CCOCC3)cc2)cc1 |  | inactive: -19.4%
47 | Nc1c(Cl)cc(C2=NCCn3nc4cc(C(F)(F)F)ccc4c32)cc1Cl | inconclusive [inhibitor, single point] | 
48 | COc1cccc(C(=O)Nc2ccc(N3CCN(Cc4ccccc4)CC3)cc2)c1 | inconclusive [inhibitor, partial curve] | 
49 | CCc1nc(SCC(=O)Nc2cccc(C(F)(F)F)c2)c2c(=O)n(C)c(=O)n(C)c2n1 | inconclusive [inhibitor, full curve] | 
50 | COc1cc(/C=N/Nc2ccc(F)cc2F)cc(OC)c1O |  | inactive: 2.17%

Row | SMILES | Potency | activity change, negative = inhibition
51 | CCC(C)NC(=O)CSc1c2c(nc3ccccc13)CCCC2 (centres undefined) | inconclusive [inhibitor, single point] | 
52 | NS(=O)(=O)c1ccc(C(=O)Nc2ccc(-c3nc4cccnc4s3)cc2)cc1 | inconclusive [inhibitor, partial curve, poor fit] | 
53 | O=C(Cn1ccc(NC(=O)OCc2ccccc2)nc1=O)NCCCc1ccccc1 |  | inactive: -1.56%
54 | CCCSc1ccc2nc(NC(=O)OC)[nH]c2c1 |  | inactive: -21%
55 | CN(c1ccc(C(=O)Nc2ccc3c(c2)OCO3)cc1)S(C)(=O)=O | inconclusive [inhibitor, partial curve] | 
56 | O=C(N/N=C/c1cn(-c2ccccc2)nc1-c1cccnc1)c1ccccc1 | inconclusive [inhibitor, single point] | 
57 | Cc1cc2oc(=O)cc(CN3CCCc4ccccc43)c2cc1C | inconclusive [inhibitor, single point] | 
58 | CCCS(=O)(=O)N1CCCC(C(=O)NCCCN(CC)c2cccc(C)c2)C1 (centres undefined) |  | inactive: -20%
59 | CN(C)c1ccc(/C=C(/NC(=O)c2ccccc2)C(=O)N/N=C/c2ccc([N+](=O)[O-])c(O)c2)cc1 | inconclusive [inhibitor, partial curve, poor fit] | 
60 | Cc1nn(-c2ccc(Cl)cc2)c2[nH]c(=O)c(CNCc3ccc4c(c3)OCO4)cc12 | inconclusive [inhibitor, partial curve] | 
61 | CC(NC(=O)c1ccc([N+](=O)[O-])o1)C1CC2CCC1C2 (centres undefined) | active: 11.2 µM | 
62 | Cc1cc(C(F)(F)F)c2sc(N)nc2n1 | inconclusive [inhibitor, single point] | 
63 | CCOC(=O)C(O)C1CCc2c([nH]c3ccc(C)cc23)C1=O (centres undefined) |  | inconclusive: -73.2% [inhibitor]
64 | NC(=O)c1nsc(C(=O)N(Cc2cccnc2)C(C(=O)NCc2ccc(F)cc2)c2ccc(F)cc2)c1N (centres undefined) |  | inactive: -26.7%
65 | COc1ccc(CCNC(=O)c2cccc(NS(=O)(=O)c3ccccc3F)c2)cc1OC |  | inactive: -7.59%
66 | COc1ccc(Cl)cc1NC(=O)COC(=O)CCc1cc(OC)c(OC)c(OC)c1 | inconclusive [inhibitor, single point] | 
67 | O=C(Nc1ccc(OCC(F)(F)C(F)F)cc1)c1ccncc1 | inconclusive [inhibitor, partial curve] | 
68 | CC(C)c1nc2scc(-c3ccc(Cl)cc3)c2c(=O)n1N |  | inconclusive: -31.3% [inhibitor]
69 | O=C(Nc1cc(S(=O)(=O)N2CCOCC2)ccc1OCC(F)(F)F)c1ccc(N2CCCC2=O)cc1 | inconclusive [inhibitor, single point] | 
70 | Cn1nc(-c2ccc3c(c2)OCCO3)c2ccccc2c1=O |  | inactive: -23.2%
71 | O=C(COC(=O)c1cccnc1Nc1ccccc1F)NCCN1C(=O)CSC1=O | inconclusive [inhibitor, single point] | 
72 | Cc1ccc(O)c(C(=O)/C=C/c2ccc3c(c2)OCCO3)c1 |  | inactive: -26.1%
73 | CCC(c1nnnn1C1CCCCC1)N(Cc1ccco1)Cc1cc2ccc(OC)cc2[nH]c1=O (centres undefined) | active: 3.55 µM | 
74 | Cc1ccc(OCC(=O)c2cc(C)n(-c3ccccc3)c2C)c([N+](=O)[O-])n1 | inconclusive [inhibitor, partial curve] | 
